Measurements reported in the RNAGym collection of RNA variant scans (doi:10.7554/elife.90254).
The source gives no read counts; variants with many changes may rest on few reads.

B1: LINE1-full (parent)
chain: UACGUAGGUGGUUUUCCCCUGAUAGUGCUAAGGGGGCCUGGAAGUUUGGACUGGGCAGAGCUCAACACAGCGUGGCAAAGUGGCUGUGGCUAGACUGCCUCUCUGGAUUCCUCGUCACUCAGCAGGGCAUCUCUGAGAGAAAUGCC

Variants of: B1
Test: self-cleavage, relative activity (ratio to wild type); higher = more cleavage; in vitro, sequencing; the parent is a self-cleaving ribozyme

Q: With UACGUGGGAGGUCUUCCCCUGAUAGUGCUAAGGGGGCCAGGAAGUUUGGACUGGGCAGAGCCCAACACAGCGUGGCAAAGUGGCUGUGGCUAGACUGCCUCUCUGGAUUCCUCGUCACUCAGCAGGGCAUCUCUGAGAGAAAUGCC [A6G U9A U13C U39A U62C] as the variant, how does the self-cleavage read?
A: 0.32

Q: With UACGUAGGUGGUUUUCCCCUGAUAGUGCUAAGGGGGCCUGGAAGUUUGGACUGGGCAGAGCUCAACGCAGCGUGGCAAAGUGGCUGUGGCUAGACUGCCUCUCUGGACUCCUCGUCACCCAGCAGGGCAUCUCUGAGAGAAAUGCC [A67G U108C U119C] as the variant, how does the self-cleavage read?
A: 0

Q: For UACGUAGGUGGCUCUCCCCUGAUAGUGCUAUGGGGGCCUGGAAGUUUGGACUGGGCAGAGCUCAACACAGCGUGGCAAAGUGGCUGUGGCUAGACUGCCUCUCUGGACUCCUCGUCACUCAGCAGGGCAUCUCUGAGAGAAAUGCC [U12C U14C A31U U108C], which self-cleavage is on record?
A: 1.62

Q: With UACGUAGGUGGUUUUCCCCUGAUAGUGCUAAGGGGGCCCGGAAGUUUGGACUGGGCAGAGCCCUACACAGCGUAGCGAAGUGGCUGUGGCUAGACUGCCUCUCUGGAUUCCUCGUCACUCAGCAGGGCAUCUCUGAGAGAAAUGCC [U39C U62C A64U G74A A77G] as the variant, how does the self-cleavage read?
A: 0.01

Q: For UACGUAGGUGGUUUUCCCCUGAUAGUGCUAAGGGGGCCCGGAAGUAUGGACUGGGCAGAGCUCAACACAGCGAGGCAAAGUGGCUGUGGCUAGACUGCCUCUCUGGAUUCCUCGUCACUCAGCAGGGCAUCUCUGAGAGAAAUGCC [U39C U46A U73A], which self-cleavage is on record?
A: 1.07

Q: With UACGUAGGUGGUUCUCCCCUGAUAGUGCUAAGGGGGCCUGGAAGUUUGGACUGGGCAGAGCUCAACACAGCGUGGCAAAGUGGCCGUGGCUAGACUGCCUCUCUGGAUCCCUCGUCACUCAGCAGGGCACCUCUGAGAGAAAUGCC [U14C U85C U109C U130C] as the variant, how does the self-cleavage read?
A: 0.59

Q: With UACGUAGGUGGUUUUCCCCUGAUAGUGCUAAGGGGGCCUGGGAGUUUGGACUGGGCAGAGCUCAACACAGCGUGGCAAAGUGGCUGUGGCUAGACUGCCUCCCUGGAUUCCUCGUCGCUCAGCAGGGCAUCUCUGAGAGAAAUGCC [A42G U102C A117G] as the variant, how does the self-cleavage read?
A: 0.44

Q: For UACGUGGGUGGUUUUCCCCUGAUAGUGCUAAGGGGGCCUGGAAGUUUGGACUGGGCAGAGCUCAACACAGCGUGGCAAAGUGGCUGUGGCUAGACAGCCCCUCUGGAUUCCUCGUCACUCAGCAGGGCAUCUCUGAGAGAAAUGCC [A6G U96A U100C], which self-cleavage is on record?
A: 0

Q: With UGCGUAGGUGGUUUUCCCCUGAUAGUGCUAAGGGGGCCUGGAAGUUUGGACUGGGCAGAGCUCAACACAGCGUGGCAAAGUGGCUAUGGCUAGACUGCCUCUCUGGAUUCCUAGUCACUCAGCAGGGCACCUCUGAGAGAAAUGCC [A2G G86A C113A U130C] as the variant, how does the self-cleavage read?
A: 0.05

Q: For UACGUAGGUGGUUUUCCCCUGAUAGUGCUAAGGGGGCCUGGAAGUUUGGACCGGGCAGAGCUCAACACAGCGUGGCAAAGUGGCUGUGGCUAGACUGCCUCCCUGGAUUCCUCGUAACUCAGCAGGGCAUCUCUGAGAAAAAUGCC [U52C U102C C116A G139A], which self-cleavage is on record?
A: 1.65

Q: For UUCGUAGGUGGCUUUCCCCUGAUAGUGCUAAGGGGGCCUGGAAGUUUGGACUGGGCAGAGCUCAACACAGCGUGGCAAAGUGGCUGUGGCUAGACUGCCUCUCUGGAUUCCUCGUCUCUCAGCAGGGCAUCUCUGAGAGAAAUGCC [A2U U12C A117U], which self-cleavage is on record?
A: 0.6

Q: With UACGUAGGUGGUUUUCCCCAGAUAGUGCUAAGGGGGCCUGGAAGAUUGGACUGGGCAGAGCUCAACACAGCGUGGCAAAGUGGCUGUGGCUAGACUGCCUCUCUGGAUUCCUCGUCACUCAGCAGGGCAUCUCUGAGAGAAACGCC [U20A U45A U143C] as the variant, how does the self-cleavage read?
A: 0.3

Q: With UACGUAGGUGGUUUUCCCCUGAUAGUGCUAAGGGGGCCUGGAAGUUUGGACUGGGCAGAGCUCAACACAGCGUGGCAAAGUGGCCGUGGCUAGACUGCCUCUCAGGAUUCCUCGUCACUCAGCAGGGCAUCUCUGAGAGGAAUGCC [U85C U104A A140G] as the variant, how does the self-cleavage read?
A: 0.02

Q: With UACGUAGAUGGUUUUCCCCUGAUAGUGCUAAGGGGGCCUGGAAGCUUGGACUGGGCAGAGCUCAACUCAGCGCGGCAAAGUGGCUGUGGCUAGACUGCCUCUCUGGAUUCCUCGUCACUCAGCAGGGCAUCUCUGAGAGAAAUGCC [G8A U45C A67U U73C] as the variant, how does the self-cleavage read?
A: 0.11

Q: Which self-cleavage does the source give for UACGUAGGUGGUUUUCCCCUGAUGGUGCUAAGGGGGCCUGGAAGUUUGGACUGGGCAGAGCUCAACACAGCGUGGCGAAGUGGCUGUGGCUAGACUGCCUCUCUGGAUUCCUCGUCACUCAGCAGGGCAUCUCUGAGUGAAAUGCC [A24G A77G A138U] here?
A: 1.98

Q: Which self-cleavage does the source give for UACGUAGGUGGUUUUCCCCUGAUAGUGCUAAGGGGGCCUGGAAGUUUGGACUGGGCAGAGCUCAACACAGCGUGGCAAAGUGGCUGUGGCUAGGCCGCCUCUCUGGAUUCCCCGUCACUCAGCAGGGCAUCUCUGAGAGAAAUGCC [A94G U96C U112C] here?
A: 0

Q: Which self-cleavage does the source give for UACGUAGGUGGUUUUCCCCUGAUAGUGCUAAGGGGGCCUGGAAGUCUGGACUGGGCAGAGCUCAACACAGCGUGGCAAAGUGGCUGUGGCCAGACUGCCUCUCUGGAUUCCUCGUCACCCAGCAGGGCAUCUCUGAGAGAAAUGCC [U46C U91C U119C] here?
A: 0.66

Q: For UACGUAGGUGGUUUUCCCCUGAUAGAGCUAAGGGGGCCUGGAAGCUUGGACUGGCCAGAGCUCAACACGGCGUGGCAAAGUGGCUGUGGCUAGACUGCCUCUCUGGAUUCCUCGUCACUCAGCAGGGCAUCUCUGAGAGAAAUGCC [U26A U45C G55C A69G], which self-cleavage is on record?
A: 0

Q: Which self-cleavage does the source give for UACGUAGGUGGUUUCCCCCUGAUAGUGCUAAGGGGGCCUGGAAGUUUGGACUGGGCAGCGCUCAACACAGCGUGGCAAAGUGGCUGUGGCUAGACUGCCUCUCUGGAUUCCUCGUCACUCAGCAGGGCAUCUCUGAGAGGAAUGCC [U15C A59C A140G] here?
A: 0.85

Q: For UACGUAGGCGGUUUUCCCCUGAUAGUGCUAAGGGGGCCUGGAAGCUUGGACUGGGCAGAGCUCAACACAGCGUGGCAAAGUGGCUGUGGCUAGACUGCCUCUCUGGAUCCCUCGUCACUCAGCAGGGCAUCCCAGAGAGAAAUGCC [U9C U45C U109C U132C U134A], which self-cleavage is on record?
A: 0.66
